Reference: PubChem BioAssay AID504339 (National Center for Advancing Translational Sciences (NCATS), 2011)
Among all 390,000 compounds or so, about 17,000 (4.4%) were called active. Inconclusive results, whose numbers are uncertain, are shown with a selection of clear calls. The call rests on the fitted dose curve; in most records, active means well fitted inhibition curve with a large enough effect; inconclusive means small, poorly fitted or top-dose-only effect; inactive means no such curve, though single readings can be large or run the other way. Potencies beside an inconclusive call are fits to weak or partial responses and may not hold up.

Target: Lysine-specific demethylase 4A (Homo sapiens) (UniProt O75164)
UniProt O75164, sequence (O75164 whole entry, looked up, the tested form may be a part): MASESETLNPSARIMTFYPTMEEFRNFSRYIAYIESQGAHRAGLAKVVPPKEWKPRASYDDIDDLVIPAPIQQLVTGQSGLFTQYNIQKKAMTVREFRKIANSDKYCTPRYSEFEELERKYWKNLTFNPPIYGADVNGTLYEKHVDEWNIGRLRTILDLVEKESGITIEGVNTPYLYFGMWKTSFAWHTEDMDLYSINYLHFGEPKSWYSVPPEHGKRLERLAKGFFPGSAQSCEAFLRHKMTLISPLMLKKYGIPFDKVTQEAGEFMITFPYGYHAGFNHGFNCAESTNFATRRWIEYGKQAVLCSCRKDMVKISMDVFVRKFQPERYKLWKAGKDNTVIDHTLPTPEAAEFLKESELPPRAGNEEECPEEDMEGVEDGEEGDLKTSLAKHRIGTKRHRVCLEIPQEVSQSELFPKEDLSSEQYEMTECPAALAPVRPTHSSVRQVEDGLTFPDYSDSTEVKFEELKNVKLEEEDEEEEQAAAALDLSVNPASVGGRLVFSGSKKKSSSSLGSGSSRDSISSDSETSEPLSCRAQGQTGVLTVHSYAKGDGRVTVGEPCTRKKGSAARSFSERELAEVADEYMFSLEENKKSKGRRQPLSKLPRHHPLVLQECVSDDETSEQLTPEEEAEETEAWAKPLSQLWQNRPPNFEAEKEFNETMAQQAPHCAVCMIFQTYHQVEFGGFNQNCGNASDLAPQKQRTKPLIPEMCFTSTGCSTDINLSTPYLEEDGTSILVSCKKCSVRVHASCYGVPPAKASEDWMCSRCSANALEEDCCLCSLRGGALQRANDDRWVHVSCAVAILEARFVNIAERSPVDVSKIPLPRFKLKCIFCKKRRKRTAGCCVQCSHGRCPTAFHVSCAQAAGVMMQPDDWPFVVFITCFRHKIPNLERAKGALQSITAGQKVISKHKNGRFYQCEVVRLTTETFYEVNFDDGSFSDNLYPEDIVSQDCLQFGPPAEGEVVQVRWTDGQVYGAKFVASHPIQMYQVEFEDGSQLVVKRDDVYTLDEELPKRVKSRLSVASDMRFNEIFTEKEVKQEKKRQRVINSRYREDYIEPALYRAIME
Assay: qHTS Assay for Inhibitors of JMJD2A-Tudor Domain; further: nearly all actives have a fitted effect of over 50% in size
Conditions: AlphaScreen JMJD2A-Tudor / H3K4me3 peptide binding; series mostly up to 114 µM
Potency means the concentration at half of the fitted maximal effect; tags describe the fitted curve by direction and shape.

Row | Compound | Potency
1 | CN(C)CCCN(C(=O)c1ccc(S(=O)(=O)N2CCCCCC2)cc1)c1nc2ccc(F)cc2s1 | inconclusive: 44.7 µM [inhibitor, partial curve]
2 | CCOC(=O)c1c(C)[nH]c(C)c1C(=O)COC(=O)c1cc2ccccc2cc1OC | inconclusive: 39.8 µM [inhibitor, full curve]
3 | Fc1ccc(-c2nnsc2Sc2ccccn2)cc1 | inactive
4 | O=C(CSc1nc2sc3c(c2c(=O)n1-c1ccccc1)CCCC3)N/N=C/c1ccccc1C(=O)O | inconclusive: 56.2 µM [inhibitor, partial curve]
5 | CCOC(=O)c1cc(CC)sc1NC(=O)CCC(=O)O | inconclusive: 89.1 µM [inhibitor, single point]
6 | CC(C)COn1c(=S)[nH]c2ccccc2c1=O | inconclusive: 15.8 µM [inhibitor, full curve, poor fit]
7 | CN(C)C(=O)CSc1nc2ccccc2n1CC(=O)N1CCN(c2ccccc2)CC1 | inactive
8 | O=C(Nc1ccccc1N1CCCC1)c1cccc(S(=O)(=O)N2CCOCC2)c1 | inactive
9 | CCOC(=O)C1CCCN(C2=C(NS(=O)(=O)c3ccc(Br)cc3)C(=O)c3ccccc3C2=O)C1 (centres undefined) | active: 10 µM
10 | CC(NS(=O)(=O)c1ccccc1)c1n[nH]c(=S)n1-c1ccccc1 (centres undefined) | active: 25.1 µM
11 | CCOc1ccccc1OCCCC(=O)NC1=NCCS1 | inconclusive: 89.1 µM [inhibitor, single point]
12 | O=C(/C=C/c1ccccc1[N+](=O)[O-])c1ccccc1Br | active: 56.2 µM
13 | Cc1occc1C(=O)NNC(=O)Nc1ccc(Cl)c(Cl)c1 | active: 50.1 µM
14 | CC(=O)N1CCN(c2ccc(NCc3ccc(C(C)C)cc3)cc2)CC1 | active: 44.7 µM
15 | COc1ccc(N=C2C(=S)N(c3ccc(OC)cc3)C(=NS(=O)(=O)c3ccccc3)N2c2ccccc2)cc1 | inconclusive: 44.7 µM [inhibitor, partial curve, poor fit]
16 | COc1ccc(C2=NC(c3ccncc3)=Nc3ccc(OC)cc3N2)cc1 | inconclusive: 39.8 µM [inhibitor, partial curve]
17 | COCCn1c(=S)[nH]c2ncccc2c1=O | active: 14.1 µM
18 | CNc1ncc(C(=O)c2ccc(Cl)c(Cl)c2)s1 | inconclusive: 100 µM [inhibitor, single point]
19 | O=C1[C@@H]2CSC(c3ccc(Cl)cc3)N2C(=O)N1c1ccccc1 (some centres undefined) | inactive
20 | CCOc1ccc(CNS(=O)(=O)c2ccc3c(c2)CCCN3C(C)=O)cc1OC | inactive
21 | CCOC(=O)N1CCN(Cc2ccccn2)CC1 | active: 0.794 µM
22 | O=c1[nH]c2cc(Cl)c([N+](=O)[O-])nc2[nH]1 | inactive
23 | COc1ccccc1N1CCN(/N=C/c2cc(OC)c(O)c(OC)c2)CC1 | active: 89.1 µM
24 | O=C(Nc1ccc(C(F)(F)F)cc1)c1cc(-c2cccnc2)nc2ccc(Br)cc12 | inactive
25 | CC(=O)N1Cc2ccccc2CC1C(=O)O (centres undefined) | inconclusive: 3.16 µM [inhibitor, single point]

Row | Compound | Potency
26 | N#C/C(=C\c1ccc(O)c(O)c1)C(=O)Nc1cccc2ncccc12 | inconclusive: 6.31 µM [inhibitor, full curve, poor fit]
27 | CC1(C)Cc2c(sc(NC(=O)Cc3ccccc3)c2C#N)CO1 | inactive
28 | COc1cccc(CNC(=O)Cc2c(C(=O)O)c(C)cn2C)c1 | inactive
29 | COc1ccc(CC(=O)NCC(c2cccs2)S(=O)(=O)c2ccc(C)cc2)cc1 (centres undefined) | inactive
30 | CCOC(=O)N1CCC(NS(=O)(=O)c2ccc3c(c2)CCN3C(C)=O)CC1 | inactive
31 | COc1ccc(/C=C/C(=O)Nc2ccc(N3CCOCC3)cc2)cc1 | inactive
32 | Cc1cccc(NC(=O)c2ccccc2NC(=O)c2ccco2)c1 | inactive
33 | O=C(NCc1cccs1)c1ccc(CSc2nc3cccnc3n2Cc2ccccc2F)cc1 | active: 5.62 µM
34 | O=[N+]([O-])c1cc(S(=O)(=O)C(F)(F)F)ccc1N1CCN(c2ccccc2)CC1 | inconclusive: 22.4 µM [inhibitor, full curve]
35 | CCNC(=O)COC(=O)c1cc(-c2ccco2)nc2ccccc12 | active: 56.2 µM
36 | O=C(NC(=O)c1ccccc1)OCC(F)(F)F | inconclusive: 63.1 µM [inhibitor, partial curve, poor fit]
37 | CCOC(=O)Cc1csc(N/C(=N/S(=O)(=O)c2ccc(Cl)cc2)c2ccccc2)n1 | inconclusive: 22.4 µM [inhibitor, single point]
38 | CCO[C@H]1OC(C(=O)N2CCN(Cc3ccc4c(c3)OCO4)CC2)=C[C@@H](c2ccc(Br)cc2)[C@@H]1CCCO | inconclusive: 56.2 µM [inhibitor, partial curve]
39 | CC(=O)N1CCc2cc(S(=O)(=O)NC(C(=O)Nc3ccc(C)cc3C)C(C)C)ccc21 (centres undefined) | inconclusive: 10 µM [inhibitor, full curve, poor fit]
40 | Oc1ccc(CNc2ccccc2F)c2cccnc12 | active: 79.4 µM
41 | CCOC(=O)C1=C(c2ccccc2)NC(N)=NC1c1ccc(OCc2ccc(Cl)cc2)c(OC)c1 (centres undefined) | inconclusive: 20 µM [inhibitor, partial curve]
42 | Cc1ccccc1OCc1nc2ccc(S(=O)(=O)N3CCOCC3)cc2[nH]1 | inconclusive: 56.2 µM [inhibitor, partial curve]
43 | COc1ccc(N2CCN(c3oc(COc4ccccc4Cl)nc3C#N)CC2)cc1 | inconclusive: 8.91 µM [inhibitor, full curve]
44 | CC(=O)Oc1cc2cccc(OC(C)=O)c(=O)c2c(OC(C)=O)c1OC(C)=O | active: 8.91 µM
45 | O=[N+]([O-])c1ccc(OC/C=C2\Oc3ccc([N+](=O)[O-])cc3C2N2CCOCC2)cc1 (centres undefined) | inconclusive: 44.7 µM [inhibitor, partial curve]
46 | COc1ccc(-n2c(=S)[nH]c3cc(C(=O)Nc4ccc(C)c(F)c4)ccc3c2=O)c(OC)c1 | inconclusive: 14.1 µM [inhibitor, full curve, poor fit]
47 | CCOC(=O)N1CCC(NC(=O)c2ccc3c(c2)N(CC)CCS3)CC1 | inconclusive: 79.4 µM [inhibitor, partial curve]
48 | O=C(CSc1ccccn1)N/N=C/c1cc([N+](=O)[O-])ccc1O | inconclusive: 56.2 µM [inhibitor, partial curve, poor fit]
49 | CSc1cccc(Nc2cc(C(=O)NCCCN(C)c3ccccc3)c3ccccc3n2)c1 | inconclusive: 39.8 µM [inhibitor, partial curve]
50 | COc1cccc(NC(=O)c2cc(-c3ccc(C)o3)nc3ccccc23)c1 | active: 56.2 µM

Row | Compound | Potency
51 | CCOc1cc(/C=N/Nc2nc3ccccc3[nH]2)cc(Br)c1OCC(=O)N(C)C | inactive
52 | C/C(CC(=O)NC(C)c1ccccc1)=N\NC(N)=S (centres undefined) | active: 31.6 µM
53 | Cc1ccc2c(c1)C1CN(C)CCC1N2Sc1ccccc1[N+](=O)[O-] (centres undefined) | active: 31.6 µM
54 | COc1ccc(NC(=O)CN(c2cc(C)cc(C)c2)S(=O)(=O)c2c(C)noc2C)cc1OC | inconclusive: 31.6 µM [inhibitor, full curve]
55 | S=C(NCCc1ccccc1)N/N=C/c1cccs1 | inconclusive: 56.2 µM [inhibitor, partial curve]
56 | CN(C)c1ccc(N=Nc2ccc(S(=O)(=O)O)cc2)c2ccccc12 | active: 35.5 µM
57 | COc1ccccc1NC(=O)CSc1nc(-c2ccc(C(C)(C)C)cc2)c(C#N)c(=O)[nH]1 | inactive
58 | Cc1ccc2nc(-c3cccc(-c4nc5ccc(C)cc5o4)n3)oc2c1 | active: 17.8 µM
59 | CCCn1c(SCC(=O)N2c3ccc(F)cc3CCC2C)nnc1-c1ccccn1 (centres undefined) | active: 70.8 µM
60 | O=C(Cc1ccc(F)cc1)Nc1nnc2n1CCS2 | inconclusive: 63.1 µM [inhibitor, partial curve, poor fit]
61 | Cc1sc2ncn(CC(=O)NCCN(C)C)c(=O)c2c1S(=O)(=O)N1CCC(C)CC1 | active: 22.4 µM
62 | C[C@H]1COc2c(N3CCN(C)CC3)c(F)cc3c(=O)c(C(=O)O)cn1c23 | inconclusive: 89.1 µM [inhibitor, single point]
63 | CC1=C(C(=O)OCCNC(=O)c2ccccc2O)C(c2ccccc2[N+](=O)[O-])C(C(=O)OCC2CCCO2)=C(C)N1 (centres undefined) | inconclusive: 44.7 µM [inhibitor, partial curve]
64 | Cc1ccc(C2=NOC3(CC(=O)N(c4ccc(C)cc4)C3=O)C2)cc1 (centres undefined) | inactive
65 | CCCn1c(SCC(=O)c2cc(OC)ccc2OC)nnc1C(C)C | active: 79.4 µM
66 | CCc1ccc(CNC(=O)c2c(C)oc3ncnc(N4CCOCC4)c23)cc1 | inactive
67 | COC(=O)c1cc(COc2ccc3oc(C)c(C(=O)OC)c3c2)c(C)o1 | inactive
68 | O=C(NCCc1ccccc1)c1nc(-c2ccc(Cl)cc2)n2c1CCCCC2 | active: 22.4 µM
69 | COc1ccc(S(=O)(=O)NCc2ccc(C(=O)NCCCN3CC(C)CC(C)C3)cc2)cc1 (centres undefined) | inconclusive: 15.8 µM [inhibitor, full curve]
70 | CN(C)CCN(C(=O)c1ccc2c(c1)CCCC2)c1nc2cc3c(cc2s1)OCCO3 | active: 44.7 µM
71 | O=S1(=O)N=C(Oc2cccc(Br)c2)c2ccccc21 | inconclusive: 79.4 µM [inhibitor, single point]
72 | N#CC1(NC(=O)COC(=O)c2cc([N+](=O)[O-])ccc2N2CCCC2)CCCCC1 | inconclusive: 20 µM [inhibitor, full curve]
73 | COc1ccccc1C(=O)Nc1ccccc1OCc1cc(=O)n2ccccc2n1 | inactive
74 | COc1ccc(Cn2cnc3c(N)c(C)c(C)cc32)cc1 | inconclusive: 50.1 µM [inhibitor, partial curve]
